Assay results as given in PubChem BioAssay AID463173 (ICCB-Longwood Screening Facility, Harvard Medical School, 2010).
In all, about 52,000 compounds went through this assay and about 1,700 (3.3%) were called active. Cut-off read from the data, not from the text of the source: active = survival mostly below about 52% (no sharp cut-off); inactive = mostly above about 56%. The list shows a part of the results.

tested on: Wild type; test: growth inhibition of S. aureus wild type versus tarO mutant, primary screen, teichoic acid synthesis inhibitors, RN4220, OD600 (AID 463173); conditions: S. aureus RN4220 wild type/DeltatarO growth, OD600, 18 h, stronger effect = lower value, screened at 18.75 µg/mL (by protocol)

Q: For `CCn1c(=O)cc(SCC(=O)NCc2ccc(F)cc2Cl)c2ccccc21`, which survival is on record?
A: inactive: 91%

Q: Which survival does the source give for `CCc1ccc(Sc2cc(C(=O)NCc3cccc(OC)c3)c3ccccc3n2)cc1` here?
A: inactive: 69%

Q: For `COc1ccc(C2NC(=O)N(C)C3=C2C(=O)N(c2cccc(Cl)c2)C3)cc1` (centres undefined), which survival is on record?
A: inactive: 75%

Q: `COC(=O)c1ccc(OCC2c3cc(OC)c(OC)cc3CCN2C(=O)Cc2ccc(OC)cc2)cc1` (centres undefined) was tested. Which survival did it give?
A: inactive: 71%

Q: How did the survival turn out when `O=C(NCCCc1ccccc1)c1nn(-c2ccccc2F)nc1CO` was run?
A: inactive: 89%

Q: `COc1cccc(CNC(=O)c2c(C)nn(-c3cccc(C)c3)c2-n2cccc2)c1` was tested. Which survival did it give?
A: inactive: 71%

Q: Which survival does the source give for `O=C(NCCc1ccccc1)c1ccc(CSc2nc3cccnc3n2Cc2ccc(F)cc2)cc1` here?
A: inactive: 90%

Q: Which survival does the source give for `CCOC(=O)CSc1nnc(-c2ccccc2NC(=O)c2ccccc2)o1` here?
A: inactive: 108%

Q: `Cc1nc(-c2ccc(C)c(N3CCN(C(=O)Nc4ccccc4C(F)(F)F)CC3)c2)no1` was tested. Which survival did it give?
A: inactive: 69%

Q: With `CC(=O)c1ccc(NC(=O)C2CCC(CNS(=O)(=O)c3ccc(Br)s3)CC2)cc1` (centres undefined) as the compound, how does the survival read?
A: inactive: 66%

Q: Which survival does the source give for `O=C(NC(=O)c1cccc(F)c1)Nc1ccc(-c2cc(C(F)(F)F)nn2-c2ccccc2)cc1` here?
A: inactive: 130%

Q: For `Cc1ccc(C(=O)Nc2nnc(S(=O)(=O)N3CCOCC3)s2)cc1`, which survival is on record?
A: inactive: 68%

Q: Which survival does the source give for `CCC(C)(C)n1nnnc1C(C(C)C)N(Cc1cccnc1)Cc1ccco1` (centres undefined) here?
A: inactive: 120%

Q: `COC(=O)c1ccc(NC(=O)C2(S(=O)(=O)c3ccc(C)cc3)CC2)cc1` was tested. Which survival did it give?
A: inactive: 133%

Q: `Cc1cc(Cl)nc2ccc(Cl)cc12` was tested. Which survival did it give?
A: inactive: 94%

Q: With `COC(=O)c1sc(-c2ccccc2)cc1NC(=O)c1cccc(F)c1` as the compound, how does the survival read?
A: inactive: 87%

Q: With `Cc1ccc(CN2CCCn3nc(C(=O)NCCC(C)C)cc3C2=O)cc1` as the compound, how does the survival read?
A: inactive: 101%

Q: `O=C(NCc1ccc(F)cc1)C1CCN(C(=O)c2ccc(-n3ccc4ccccc43)s2)CC1` was tested. Which survival did it give?
A: inactive: 59%

Q: Which survival does the source give for `COc1cc2c(cc1OC)C1=C(C#N)CN(C3CCCCC3)CN1CC2` here?
A: inactive: 103%

Q: Which survival does the source give for `Cc1ccc(S(=O)(=O)N2CCC(Oc3ccc(-n4cnnn4)cc3)CC2)cc1` here?
A: inactive: 86%

Q: Which survival does the source give for `COc1ccc(CC(=O)Nc2ccc3nc(Nc4cccc(Cl)c4)cc(C)c3c2)cc1OC` here?
A: inactive: 64%

Q: For `COc1ccccc1-n1cc(-c2ccc(C)cc2)nc1S(=O)(=O)CC(=O)Nc1ccccc1C(F)(F)F`, which survival is on record?
A: inactive: 129%

Q: Which survival does the source give for `COc1ccc(CNCCSc2nnnn2-c2ccccc2)cc1` here?
A: inactive: 83%

Q: How did the survival turn out when `C1=CCC(CN2CCN(CC3CC4C=CC3C4)CC2)CC1` (centres undefined) was run?
A: inactive: 109%

Q: `COc1ccc(CCNC(=O)c2ccc3c(c2)N(Cc2cccc(C)c2)C(=O)c2ccccc2S3(=O)=O)cc1OC` was tested. Which survival did it give?
A: inactive: 101%

Q: Which survival does the source give for `O=C1C2C3C=CC(C3)C2C(=O)N1CCN1CCCC1` (centres undefined) here?
A: inactive: 102%

Q: How did the survival turn out when `CCNC(=O)Cn1cc(C#N)c2ccccc21` was run?
A: inactive: 98%

Q: `CCc1ccc(-n2nnc(-c3nc(-c4ccccc4)no3)c2C)cc1` was tested. Which survival did it give?
A: inactive: 78%

Q: For `COc1ccccc1Nc1c2c(nc3ccc(NC(=O)/C=C/c4cccc(OC)c4OC)cc13)CCCC2`, which survival is on record?
A: inactive: 100%

Q: Which survival does the source give for `Cc1ccc(Nc2c3c(nc4nncn24)CCC3)cc1` here?
A: inactive: 83%

Q: For `COc1cc(OC)c(NC(c2nnc(-c3ccccc3)o2)c2ccc(F)cc2Cl)cc1Cl` (centres undefined), which survival is on record?
A: inactive: 66%

Q: `COc1ccc2nc(N(Cc3cccnc3)C(=O)CCc3ccccc3)sc2c1` was tested. Which survival did it give?
A: inactive: 83%

Q: For `COc1ccccc1NC(=O)CSc1nnc(-c2cccc(Cl)c2)o1`, which survival is on record?
A: inactive: 77%

Q: How did the survival turn out when `CCOc1ccccc1-c1nc(-c2ccc(-c3ccccc3)nc2OCC)no1` was run?
A: active: -1%

Q: With `CCn1cc(S(=O)(=O)c2cc(C)cc(C)c2)c(=O)c2cc(F)c(N3CCOCC3)cc21` as the compound, how does the survival read?
A: inactive: 71%

Q: Which survival does the source give for `Cc1cc(C)cc(-n2cnc3cc(C(=O)NCCc4ccccc4)ccc32)c1` here?
A: inactive: 73%

Q: With `COc1cc(NC(=O)Cn2c(SCc3ccc(F)cc3)nc3cccnc32)cc(OC)c1` as the compound, how does the survival read?
A: inactive: 128%

Q: For `CCN(C(=O)Cn1c(C(=O)OC)cc2oc3ccccc3c21)c1cccc(C)c1`, which survival is on record?
A: active: 24%

Q: For `Cc1ccc(CCNC(=O)CCc2cn(Cc3ccccc3C)c3ccccc23)cc1`, which survival is on record?
A: inactive: 97%

Q: Which survival does the source give for `CCOC(=O)c1c(Oc2ccc(C(=O)OC)cc2)nnc(-c2ccccc2)c1-c1ccccc1` here?
A: inactive: 87%

Q: For `Cc1ccc(C)c(N(C)C(=O)c2cn(C)c(=O)c3ccccc23)c1`, which survival is on record?
A: inactive: 90%

Q: Which survival does the source give for `O=C(CNC(=O)c1ccccc1Cl)OCc1cc(=O)n2ccsc2n1` here?
A: inactive: 74%

Q: With `O=C(c1cccc(Cl)c1)n1nc(-c2ccco2)nc1NCc1cccs1` as the compound, how does the survival read?
A: inactive: 83%

Q: For `COc1cc(CN(C(=O)c2cc3ccccc3oc2=O)C2CCS(=O)(=O)C2)cc(OC)c1OC` (centres undefined), which survival is on record?
A: inactive: 84%

Q: Which survival does the source give for `Cc1cccc(Cn2c(SCc3ccc(C(=O)N4CCCCCC4)cc3)nc3ccncc32)c1` here?
A: inactive: 132%

Q: For `Brc1csc(CN2CCc3nc(Nc4ccccc4)ncc3C2)c1`, which survival is on record?
A: inactive: 70%

Q: How did the survival turn out when `Cc1cccc(NC(=O)c2cc(S(=O)(=O)N3CCCCC3)c[nH]2)c1C` was run?
A: inactive: 89%

Q: With `Cc1ccc(Cn2c(=O)n(CCCCC(=O)NCCc3ccc(Cl)cc3)c(=O)c3ccccc32)cc1` as the compound, how does the survival read?
A: inactive: 103%

Q: `CC1CCc2c(sc3nnn(Cc4ccc(F)cc4)c(=O)c23)C1` (centres undefined) was tested. Which survival did it give?
A: active: 1%

Q: `COc1ccc(Cc2c(Cl)nc(SC)nc2NN)cc1` was tested. Which survival did it give?
A: inactive: 99%

Q: How did the survival turn out when `O=C(NCc1ccccc1)c1cc(-c2cccc(Cl)c2)on1` was run?
A: inactive: 88%

Q: With `CC1=NN(CCC#N)C(c2ccccc2)C1` (centres undefined) as the compound, how does the survival read?
A: inactive: 108%

Q: How did the survival turn out when `Cc1cc(C)cc(OCC(=O)NCC(c2ccc(Cl)cc2)N2CCCCC2)c1` (centres undefined) was run?
A: inactive: 83%

Q: How did the survival turn out when `COc1ccc(S(=O)(=O)N2CCN(c3ccc(F)cc3)CC2)cc1-c1noc(C)n1` was run?
A: inactive: 84%

Q: With `O=C1CC2CCC(CN1)N2CC(=O)N1c2ccccc2Sc2ccc(C(F)(F)F)cc21` (centres undefined) as the compound, how does the survival read?
A: inactive: 110%

Q: With `COc1ccc(OC)c(N(CC(=O)NCc2ccccc2)S(=O)(=O)c2ccccc2)c1` as the compound, how does the survival read?
A: inactive: 79%

Q: For `CCc1ccccc1NC(=O)Cn1nnc(C(=O)OC)c1C(=O)OC`, which survival is on record?
A: inactive: 83%

Q: How did the survival turn out when `COc1ccc(N2CCOCC2)cc1` was run?
A: inactive: 110%

Q: Which survival does the source give for `CCN(CC)S(=O)(=O)c1ccc2c(c1)N(CC(=O)Nc1c(C)cccc1C)C(=O)CO2` here?
A: inactive: 87%
